{"source": "paper PMC4336329", "about": "(PLoS ONE, 2015)", "note": "In all, about 310,000 compounds went through this assay and about 2,200 (0.71%) showed an effect of 50% or more. The effect is printed as a negative number. The list shows a part of the results."}
{"target": "human ether-à-go-go-related gene (hERG) potassium channel (human, UniProt Q12809)", "sequence (Q12809 whole entry, looked up)": "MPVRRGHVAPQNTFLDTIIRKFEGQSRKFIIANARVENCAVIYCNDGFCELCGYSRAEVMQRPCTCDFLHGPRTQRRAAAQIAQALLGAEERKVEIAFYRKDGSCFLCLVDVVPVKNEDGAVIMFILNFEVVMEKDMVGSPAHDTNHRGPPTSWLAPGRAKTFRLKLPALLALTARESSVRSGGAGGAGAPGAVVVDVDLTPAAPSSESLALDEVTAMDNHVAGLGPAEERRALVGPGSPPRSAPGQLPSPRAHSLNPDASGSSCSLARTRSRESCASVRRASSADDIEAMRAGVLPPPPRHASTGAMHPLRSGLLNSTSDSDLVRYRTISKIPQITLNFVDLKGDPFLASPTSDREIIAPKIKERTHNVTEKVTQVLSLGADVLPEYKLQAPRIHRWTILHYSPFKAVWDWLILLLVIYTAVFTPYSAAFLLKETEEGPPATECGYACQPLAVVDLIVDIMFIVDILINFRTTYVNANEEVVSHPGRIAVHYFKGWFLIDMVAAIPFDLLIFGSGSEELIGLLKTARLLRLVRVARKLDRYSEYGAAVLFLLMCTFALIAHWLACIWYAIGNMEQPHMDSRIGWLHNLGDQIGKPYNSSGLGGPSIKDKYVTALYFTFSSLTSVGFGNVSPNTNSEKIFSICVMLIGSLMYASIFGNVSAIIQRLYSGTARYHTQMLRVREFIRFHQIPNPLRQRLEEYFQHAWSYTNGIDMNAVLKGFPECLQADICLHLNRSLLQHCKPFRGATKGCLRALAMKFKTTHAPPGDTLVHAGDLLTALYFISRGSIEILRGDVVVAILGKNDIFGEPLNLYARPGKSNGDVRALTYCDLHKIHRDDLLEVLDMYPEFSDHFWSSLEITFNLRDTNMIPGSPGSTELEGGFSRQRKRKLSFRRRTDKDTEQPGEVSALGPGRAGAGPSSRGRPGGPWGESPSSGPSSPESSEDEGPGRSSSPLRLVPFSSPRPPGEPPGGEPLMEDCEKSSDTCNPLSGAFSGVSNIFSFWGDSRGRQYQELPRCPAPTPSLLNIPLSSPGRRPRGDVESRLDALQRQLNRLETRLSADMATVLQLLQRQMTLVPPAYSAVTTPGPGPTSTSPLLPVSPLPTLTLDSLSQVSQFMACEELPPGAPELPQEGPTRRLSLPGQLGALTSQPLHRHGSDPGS", "assay": "primary screen, population patch clamp on CHO cells stably expressing hERG", "units": {"hERG current change (%, negative = inhibition) at 1uM": "%"}}
{"smiles": "CNC(=O)CSc1nnc(-c2ccc3c(c2)OCO3)n1C", "hERG current change (%, negative = inhibition) at 1uM": 15.9}
{"smiles": "Cc1ccc(SCc2cc(=O)n3[nH]cnc3n2)cc1", "hERG current change (%, negative = inhibition) at 1uM": 2.45}
{"smiles": "CCSc1nc2ccc(OC)cc2cc1C#N", "hERG current change (%, negative = inhibition) at 1uM": 3.44}
{"smiles": "CCOC(=O)C1=C(C)NC(SC)=NC1c1ccc(OC)cc1.I", "note": "(stereo not shown)", "hERG current change (%, negative = inhibition) at 1uM": 8.97}
{"smiles": "CCNC(=S)N1CCN(Cc2ccc3c(c2)OCO3)CC1", "hERG current change (%, negative = inhibition) at 1uM": 23.4}
{"smiles": "COc1cccc(CC2(CO)CCCN(S(=O)(=O)N(C)C)C2)c1", "note": "(stereo not shown)", "hERG current change (%, negative = inhibition) at 1uM": 40.5}
{"smiles": "O=C(c1cccnc1)C1Cc2ccccc2C1=O", "note": "(stereo not shown)", "hERG current change (%, negative = inhibition) at 1uM": 7.83}
{"smiles": "CC1=NOC(=O)/C1=C/c1ccc(-c2ccc(Cl)cc2)o1", "hERG current change (%, negative = inhibition) at 1uM": 13.4}
{"smiles": "CCN1C(=O)C(=C2C=C(C)N(Cc3ccco3)C(C)=C2)C(=O)N(CC)C1=S", "hERG current change (%, negative = inhibition) at 1uM": 3.32}
{"smiles": "CC(C)C[C@H](NC(=O)C1CC(=O)N(c2ccc3c(c2)OCCO3)C1)C(=O)NC1CCCC1", "note": "(stereo partly shown)", "hERG current change (%, negative = inhibition) at 1uM": 12.2}
{"smiles": "CC(C)Cn1c2c(c(=O)[nH]c1=O)C(C(F)(F)F)(C(F)(F)F)N=C(CCC1CCCCC1)N2", "hERG current change (%, negative = inhibition) at 1uM": 7.42}
{"smiles": "Cc1cc(OCC(=O)Nc2ccc(F)c(F)c2)nc(C(C)C)n1", "hERG current change (%, negative = inhibition) at 1uM": 17}
{"smiles": "CC(C)(C)SCCNS(=O)(=O)c1ccccc1", "hERG current change (%, negative = inhibition) at 1uM": 16.2}
{"smiles": "CCOC(=O)CSc1nc(-c2ccccc2)nc2ccc(C)cc12", "hERG current change (%, negative = inhibition) at 1uM": 12.7}
{"smiles": "Cc1ccc(OCCC(=O)N2CCN(c3ccc(O)cc3)CC2)cc1", "hERG current change (%, negative = inhibition) at 1uM": 4.2}
{"smiles": "COc1ccc(N2C(=O)C(CC(=O)Nc3ccccc3)N(Cc3ccc(OC)c(OC)c3)C2=O)cc1", "note": "(stereo not shown)", "hERG current change (%, negative = inhibition) at 1uM": 12.7}
{"smiles": "Cc1cc(C)nc(-n2nc(C)cc2NC(=O)c2ccc(F)cc2F)n1", "hERG current change (%, negative = inhibition) at 1uM": 2.98}
{"smiles": "CC1CCN(c2ncnc3nc[nH]c23)CC1", "hERG current change (%, negative = inhibition) at 1uM": 2.12}
{"smiles": "Cc1ccc(S(=O)(=O)c2c(N)n(CCCN(C)C)c3nc4ccccc4nc23)cc1", "hERG current change (%, negative = inhibition) at 1uM": -1.47}
{"smiles": "Cn1c(=O)c2c(nc(Sc3ncccn3)n2Cc2ccccc2Cl)n(C)c1=O", "hERG current change (%, negative = inhibition) at 1uM": -0.59}
{"smiles": "Cc1ccsc1/C=C(\\CC(=O)O)c1nc2ccccc2o1", "hERG current change (%, negative = inhibition) at 1uM": 11.2}
{"smiles": "Cl.Cn1cnc([N+](=O)[O-])c1SCC(=O)NN", "hERG current change (%, negative = inhibition) at 1uM": 12.3}
{"smiles": "CC(=O)c1cn(CC(=O)NCc2cccnc2)c2ccccc12", "hERG current change (%, negative = inhibition) at 1uM": 7.44}
{"smiles": "Cc1sc2ncnc(SC(C)C#N)c2c1C", "note": "(stereo not shown)", "hERG current change (%, negative = inhibition) at 1uM": 21.1}
{"smiles": "CC(=O)Nc1ccc(C(=O)Nc2ccc(S(=O)(=O)N3CCCCC3)cc2)cc1", "hERG current change (%, negative = inhibition) at 1uM": 7.96}
{"smiles": "O=C1CSC(=S)N1/N=C/c1ccc(Cl)c([N+](=O)[O-])c1", "hERG current change (%, negative = inhibition) at 1uM": 2.01}
{"smiles": "Cc1ccc(Cn2cc(C(=O)NN)c(=O)c3ccc(F)cc32)cc1", "hERG current change (%, negative = inhibition) at 1uM": 3.23}
{"smiles": "C=CCNS(=O)(=O)c1ccc2nsnc2c1", "hERG current change (%, negative = inhibition) at 1uM": 9.21}
{"smiles": "CNC(=O)c1ccccc1NC(=O)c1ccco1", "hERG current change (%, negative = inhibition) at 1uM": 7.27}
{"smiles": "COc1cccc2c1Oc1ncccc1N(C(=O)CCC(=O)NCc1cccc(C)c1)C2", "hERG current change (%, negative = inhibition) at 1uM": 4.21}
{"smiles": "Cc1cccc2sc(N(CCCN(C)C)C(=O)c3ccc(C(=O)c4ccccc4)cc3)nc12", "hERG current change (%, negative = inhibition) at 1uM": 8.43}
{"smiles": "CCOc1ccccc1NC(=O)N1CCCC1C(=O)Nc1nnc(CC)s1", "note": "(stereo not shown)", "hERG current change (%, negative = inhibition) at 1uM": 3.06}
{"smiles": "Cc1ccc(S(=O)(=O)N(C)CC(=O)OCC(=O)NCCN2C(=O)CSC2=O)cc1", "hERG current change (%, negative = inhibition) at 1uM": 4.17}
{"smiles": "Cc1ccc(CSc2nnc(C)c(=O)n2N)cc1", "hERG current change (%, negative = inhibition) at 1uM": 12.7}
{"smiles": "COc1ccc(CCNC(=O)c2coc3ccccc3c2=O)cc1OC", "hERG current change (%, negative = inhibition) at 1uM": 3}
{"smiles": "CCCc1cc(=O)oc2c3c(cc(OCC(=O)N[C@@H](CSC)C(=O)O)c12)OC(C)(C)CC3", "hERG current change (%, negative = inhibition) at 1uM": 12.5}
{"smiles": "Cc1cccc(NC(=O)C(C)Sc2nnc(-c3cccnc3)o2)c1", "note": "(stereo not shown)", "hERG current change (%, negative = inhibition) at 1uM": 8.45}
{"smiles": "CC(C)C(=O)Nc1cccc2nsnc12", "hERG current change (%, negative = inhibition) at 1uM": 13.3}
{"smiles": "CSc1ncc(Cl)c(C(=O)Nc2ccc(S(=O)(=O)N3CCOCC3)cc2)n1", "hERG current change (%, negative = inhibition) at 1uM": 5.04}
{"smiles": "CCOC(=O)CC(Nc1nc(N2CCOCC2)nc(N2CCOCC2)n1)c1ccccc1Cl", "note": "(stereo not shown)", "hERG current change (%, negative = inhibition) at 1uM": 8.77}
{"smiles": "Cc1nn(-c2ccccc2)c(C)c1-c1cc(C(=O)N/N=C/c2cccnc2)[nH]n1", "hERG current change (%, negative = inhibition) at 1uM": 7.46}
{"smiles": "O=C(CS(=O)c1ccc(C(F)(F)F)cc1[N+](=O)[O-])Oc1ccccc1", "note": "(stereo not shown)", "hERG current change (%, negative = inhibition) at 1uM": 6.78}
{"smiles": "Cc1sc2nc(-c3ccco3)oc(=O)c2c1C", "hERG current change (%, negative = inhibition) at 1uM": 12}
{"smiles": "Cc1ccc(C)c(S(=O)(=O)ON2C(=O)c3ccccc3C2=O)c1", "hERG current change (%, negative = inhibition) at 1uM": 1.91}
{"smiles": "O=C(N/C(=C\\c1ccccc1)C(=O)N1CCN(CCO)CC1)c1ccccc1", "hERG current change (%, negative = inhibition) at 1uM": 2.9}
{"smiles": "CCCCCN1CC(O)=C(c2nc3ccccc3[nH]2)C1=N", "hERG current change (%, negative = inhibition) at 1uM": 8.25}
{"smiles": "COc1cccc(NC(=O)COC(=O)c2c(F)cccc2Cl)c1", "hERG current change (%, negative = inhibition) at 1uM": 13.1}
{"smiles": "CC(C)CC(O)(c1ccccc1)C(CN1CCOCC1)c1ccccc1.Cl", "note": "(stereo not shown)", "hERG current change (%, negative = inhibition) at 1uM": 6.22}
{"smiles": "O=C(CN1C(=O)c2ccccc2C1=O)OCC(=O)c1ccccc1", "hERG current change (%, negative = inhibition) at 1uM": -3.21}
{"smiles": "CC1(C)Cc2c(sc3[nH]c(=O)n(CC(=O)NCC4CCCO4)c(=O)c23)CO1", "note": "(stereo not shown)", "hERG current change (%, negative = inhibition) at 1uM": 3.94}
{"smiles": "CC(=O)N1CCN(C(=O)c2ccc(S(=O)(=O)Nc3cccc(C(F)(F)F)c3)cc2)CC1", "hERG current change (%, negative = inhibition) at 1uM": 24.2}
{"smiles": "COC(=O)c1cccc(NC(=O)Cn2nnc3ccccc32)c1", "hERG current change (%, negative = inhibition) at 1uM": 5.54}
{"smiles": "C=CCn1c(N)cc(=O)nc1SCC(=O)Nc1ccc(C(=O)OC)cc1", "hERG current change (%, negative = inhibition) at 1uM": -9.28}
{"smiles": "CCOC(=O)Cc1csc(N/N=C/c2cccc([N+](=O)[O-])c2)n1", "hERG current change (%, negative = inhibition) at 1uM": 15.7}
{"smiles": "O=C(N/N=C/c1ccncc1)c1nn(Cc2ccccc2)c(=O)c2ccccc12", "hERG current change (%, negative = inhibition) at 1uM": 12.2}
{"smiles": "N#CCCN(C(=O)CSc1ccc2c(c1)OCCO2)c1ccccc1", "hERG current change (%, negative = inhibition) at 1uM": 5.26}
{"smiles": "COCCNC(=O)C1=NOC(Cn2cc(C#N)c(=O)n(C)c2=O)C1", "note": "(stereo not shown)", "hERG current change (%, negative = inhibition) at 1uM": 18.7}
{"smiles": "O=C(O)c1ccc(S(=O)(=O)N2CCN(c3ccccn3)CC2)cc1", "hERG current change (%, negative = inhibition) at 1uM": 17}
